In publication doi:10.1101/2022.12.30.522308 (bioRxiv, 2022):

Molecular target: T1, extracellular domain of human IL-9 receptor α (hIL-9Rα) (human, UniProt Q01113-1 40-261)
T1 sequence (looked up): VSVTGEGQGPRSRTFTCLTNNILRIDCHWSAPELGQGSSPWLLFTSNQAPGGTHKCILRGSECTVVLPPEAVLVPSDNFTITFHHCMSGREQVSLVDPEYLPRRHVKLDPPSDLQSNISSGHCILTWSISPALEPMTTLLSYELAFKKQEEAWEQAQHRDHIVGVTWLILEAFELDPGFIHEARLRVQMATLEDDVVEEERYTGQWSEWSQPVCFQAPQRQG
Experiment: BLI

B1: hIL-9^T117M, produced in HEK293T cells, biotinylated on the Avi-tag (ligand)
chain: not shown
modifications: biotin on the Avi-tag (in vitro, BirA)
binding result: binds
